Source: the supplement of paper PMC8728848
This is one part of the list.

Columns and labels:
Test in all cases: glycan array binding signal (z-score within array); higher = stronger binding
Settings in all cases: glycan notation: IUPAC condensed, linker removed
[1] = target: GlcNAc(b1-4)GlcNAc(b1-4)GlcNAc(b1-4)GlcNAc(b1-4)GlcNAc
Outline: (§1)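 The Consortium for Functional Glycomics database supplied 3228 glycan arrays, of which those lacking an available protein sequence were dropped. The binding signal, a within-array Z-score, was averaged across arrays of the same protein sequence and across linkers. Negative scores can be read as non-binding.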

[2] = target: GlcNAc(b1-4)GlcNAc(b1-4)GlcNAc(b1-4)GlcNAc(b1-4)GlcNAc(b1-4)GlcNAc
Outline: as §1

[3] = target: GlcNAc(b1-4)[GlcNAc(b1-6)]GalNAc
Outline: as §1

[4] = target: GlcNAc(b1-6)Gal(b1-4)GlcNAc
Outline: as §1

GlcNAc(b1-6)GalNAc = target: GlcNAc(b1-6)GalNAc
Outline: as §1

Kdn(a2-3)Gal(b1-3)GlcNAc = target: Kdn(a2-3)Gal(b1-3)GlcNAc
Outline: as §1

Kdn(a2-3)Gal(b1-4)GlcNAc = target: Kdn(a2-3)Gal(b1-4)GlcNAc
Outline: as §1

[5] = target: Man(a1-2)Man(a1-2)Man(a1-3)Man
Outline: as §1

[6] = target: Man(a1-2)Man(a1-2)Man(a1-6)[Man(a1-3)]Man
Outline: as §1

Man(a1-2)Man(a1-3)Man = target: Man(a1-2)Man(a1-3)Man
Outline: as §1

[7] = target: Man(a1-2)Man(a1-3)[Man(a1-2)Man(a1-6)]Man
Outline: as §1

[8] = target: Man(a1-2)Man(a1-3)[Man(a1-2)Man(a1-6)]Man(a1-6)[Man(a1-2)Man(a1-2)Man(a1-3)]Man(b1-4)GlcNAc(b1-4)GlcNAc
Outline: as §1

[9] = target: Man(a1-2)Man(a1-3)[Man(a1-6)]Man(a1-6)[Man(a1-2)Man(a1-3)]Man(b1-4)GlcNAc(b1-4)GlcNAc
Outline: as §1

[10] = target: Man(a1-2)Man(a1-6)[Man(a1-3)]Man(a1-6)[Man(a1-2)Man(a1-2)Man(a1-3)]Man(b1-4)GlcNAc(b1-4)GlcNAc
Outline: as §1

Man(a1-3)[Man(a1-6)]Man = target: Man(a1-3)[Man(a1-6)]Man
Outline: as §1

[11] = target: Man(a1-3)[Man(a1-6)]Man(a1-6)[Man(a1-2)Man(a1-3)]Man(b1-4)GlcNAc(b1-4)GlcNAc
Outline: as §1

[12] = target: Man(a1-3)[Man(a1-6)]Man(a1-6)[Man(a1-3)]Man(b1-4)GlcNAc(b1-4)GlcNAc
Outline: as §1

[13] = target: Man(a1-3)[Man(a1-6)]Man(b1-4)GlcNAc(b1-4)GlcNAc
Outline: as §1

Man(b1-4)GlcNAc = target: Man(b1-4)GlcNAc
Outline: as §1

Neu5Ac(a2-3)Gal = target: Neu5Ac(a2-3)Gal
Outline: as §1

[14] = target: Neu5Ac(a2-3)Gal(b1-3)GalNAc
Outline: as §1

[15] = target: Neu5Ac(a2-3)Gal(b1-3)GalNAc(b1-3)Gal(a1-4)Gal(b1-4)Glc
Outline: as §1

[16] = target: Neu5Ac(a2-3)Gal(b1-3)GalNAc(b1-3)Gal(b1-4)GlcNAc
Outline: as §1

[17] = target: Neu5Ac(a2-3)Gal(b1-3)GalNAc(b1-4)[Neu5Ac(a2-3)]Gal(b1-4)Glc
Outline: as §1

[18] = target: Neu5Ac(a2-3)Gal(b1-3)GalNAc6S
Outline: as §1

[19] = target: Neu5Ac(a2-3)Gal(b1-3)GlcNAc
Outline: as §1

[20] = target: Neu5Ac(a2-3)Gal(b1-3)GlcNAc6S
Outline: as §1

[21] = target: Neu5Ac(a2-3)Gal(b1-3)[Fuc(a1-4)]GlcNAc
Outline: as §1

[22] = target: Neu5Ac(a2-3)Gal(b1-3)[Fuc(a1-4)]GlcNAc(b1-3)Gal(b1-4)[Fuc(a1-3)]GlcNAc
Outline: as §1

[23] = target: Neu5Ac(a2-3)Gal(b1-3)[Neu5Ac(a2-3)Gal(b1-4)]GlcNAc
Outline: as §1

[24] = target: Neu5Ac(a2-3)Gal(b1-3)[Neu5Ac(a2-6)]GalNAc
Outline: as §1

Neu5Ac(a2-3)Gal(b1-4)Glc = target: Neu5Ac(a2-3)Gal(b1-4)Glc
Outline: as §1

[25] = target: Neu5Ac(a2-3)Gal(b1-4)GlcNAc
Outline: as §1

[26] = target: Neu5Ac(a2-3)Gal(b1-4)GlcNAc(b1-2)Man(a1-3)[Neu5Ac(a2-3)Gal(b1-4)GlcNAc(b1-2)Man(a1-6)]Man(b1-4)GlcNAc(b1-4)GlcNAc
Outline: as §1

[27] = target: Neu5Ac(a2-3)Gal(b1-4)GlcNAc(b1-3)Gal(b1-4)GlcNAc
Outline: as §1

[28] = target: Neu5Ac(a2-3)Gal(b1-4)GlcNAc(b1-3)Gal(b1-4)GlcNAc(b1-3)Gal(b1-4)GlcNAc
Outline: as §1

[29] = target: Neu5Ac(a2-3)Gal(b1-4)GlcNAc(b1-3)Gal(b1-4)[Fuc(a1-3)]GlcNAc
Outline: as §1

B1: Siglec-H (Mus musculus), Q4QQK7 (protein)
chain: MLLSRLLPLLWVLKWASGNCFILPREVIGTYPSLTLELQSVTVQEGLCVLVPCHLIEYPMNRWSDAAFGYWFHEGENTHPDSLVATNKPYQLVQKEMQSRFHFSGDCSLDIRDAQKGDNGSYFFRLEKGGKTWNFCEERISVHVTDLTHSPNISIPQTLELGRPTNVMCSVPWACERGTPPIFSWMSAALISLGPTTTLSSVLTLTPRLQDHGTNLTCQVTFPGAGVTVQKTIQLNVTYNSQNSTAHVSGRVGPGKPRPLADVVQVAMGEAAIKFLLLGICFFFLSKRSHTKRVERPATHMDQAHAVMD
- glycan array binding signal (z-score) [1]: -0.024
- glycan array binding signal (z-score) [2]: -0.229
- glycan array binding signal (z-score) [3]: -0.313
- glycan array binding signal (z-score) [4]: -0.379
- glycan array binding signal (z-score) (GlcNAc(b1-6)GalNAc): -0.31
- glycan array binding signal (z-score) (Kdn(a2-3)Gal(b1-3)GlcNAc): -0.29
- glycan array binding signal (z-score) (Kdn(a2-3)Gal(b1-4)GlcNAc): -0.227
- glycan array binding signal (z-score) [5]: -0.235
- glycan array binding signal (z-score) [6]: 1.27
- glycan array binding signal (z-score) (Man(a1-2)Man(a1-3)Man): -0.251
- glycan array binding signal (z-score) [7]: -0.324
- glycan array binding signal (z-score) [8]: -0.252
- glycan array binding signal (z-score) [9]: -0.228
- glycan array binding signal (z-score) [10]: 1.92
- glycan array binding signal (z-score) (Man(a1-3)[Man(a1-6)]Man): -0.263
- glycan array binding signal (z-score) [11]: -0.144
- glycan array binding signal (z-score) [12]: -0.393
- glycan array binding signal (z-score) [13]: -0.35
- glycan array binding signal (z-score) (Man(b1-4)GlcNAc): -0.116
- glycan array binding signal (z-score) (Neu5Ac(a2-3)Gal): -0.288
- glycan array binding signal (z-score) [14]: -0.361
- glycan array binding signal (z-score) [15]: 0.075
- glycan array binding signal (z-score) [16]: -0.371
- glycan array binding signal (z-score) [17]: -0.255
- glycan array binding signal (z-score) [18]: -0.312
- glycan array binding signal (z-score) [19]: -0.1
- glycan array binding signal (z-score) [20]: 1.46
- glycan array binding signal (z-score) [21]: -0.383
- glycan array binding signal (z-score) [22]: -0.382
- glycan array binding signal (z-score) [23]: -0.317
- glycan array binding signal (z-score) [24]: 2.4
- glycan array binding signal (z-score) (Neu5Ac(a2-3)Gal(b1-4)Glc): -0.279
- glycan array binding signal (z-score) [25]: -0.323
- glycan array binding signal (z-score) [26]: -0.271
- glycan array binding signal (z-score) [27]: -0.033
- glycan array binding signal (z-score) [28]: -0.359
- glycan array binding signal (z-score) [29]: 0.637
